Some of the results follow. At the low end of the ranking the order means little.
system: T1, GST-NbGlk1(82-244); assay: protein-binding microarray; conditions: NbGlk1 is a Golden2-like transcription factor of Nicotiana benthamiana; high values mean tight binding; most listed sequences are background and not binding sites; double strand, one strand shown;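 note: rank-based score ranging −0.5 to +0.5 with E above 0.45 taken as significant binding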
T1 sequence: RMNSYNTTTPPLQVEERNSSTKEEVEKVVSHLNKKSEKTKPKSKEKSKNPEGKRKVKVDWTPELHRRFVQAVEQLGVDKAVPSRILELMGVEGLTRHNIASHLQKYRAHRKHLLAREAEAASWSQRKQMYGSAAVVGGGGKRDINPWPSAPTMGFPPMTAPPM

Sequence	binding signal
ACCGCGTG	-0.194 E-score
ACTCAGGG	-0.194 E-score
AATCCTCG	0.345 E-score
AGCGGGTC	-0.225 E-score
ACCTATGG	-0.172 E-score
ATGCCTGA	0.0134 E-score
AAAAACTG	-0.0658 E-score
ACTCCTGC	-0.272 E-score
ACGCAACT	0.0194 E-score
ATCAGGAG	0.0761 E-score
ACTCTAAT	0.138 E-score
AACCGATC	0.0318 E-score
AGGTAGAC	-0.19 E-score
AGCTGTTC	-0.00371 E-score
CAAGAGCC	-0.135 E-score
ACCGGCCC	-0.317 E-score
ATCTGTCA	0.145 E-score
AGCCACCC	-0.252 E-score
ATAACTCA	0.0337 E-score
AAGGTTAA	-0.00675 E-score
ACCTCCAC	-0.26 E-score
ACCTCCGG	-0.219 E-score
ATTCCCTC	0.372 E-score
AGGATTGG	0.0414 E-score
AGCGAAGG	-0.309 E-score

Sequence	binding signal
ACTTACCG	-0.116 E-score
AAACCTGA	0.00404 E-score
CACCGCTG	-0.239 E-score
CACTACGG	-0.0209 E-score
AGTAATAG	-0.0642 E-score
CAAGCACG	-0.114 E-score
ATCTAGCC	0.191 E-score
ACCGTGTA	-0.0278 E-score
ACAGGCAG	-0.109 E-score
ACTTGGCT	-0.026 E-score
AGAACCGA	0.132 E-score
AGCGCGGC	-0.19 E-score
ACCGGCAG	-0.215 E-score
ACCAGACG	-0.184 E-score
ACGCAGGC	-0.307 E-score
AACGTTGT	0.00292 E-score
AAGTCCAC	-0.248 E-score
AAGAGCAG	-0.0514 E-score
ATGGCTAA	-0.0408 E-score
ATACAGAC	-0.0164 E-score
ATCAGATG	0.0928 E-score
AGAGAATG	-0.000831 E-score
AACTTCAA	0.0509 E-score
AGTACCCC	-0.293 E-score
ACTGTAGA	0.0528 E-score

Sequence	binding signal
AAGGTGAT	0.0735 E-score
AATGTAGC	-0.124 E-score
AACTGGGT	-0.169 E-score
CAGAGGGG	-0.212 E-score
AAAAACAA	0.143 E-score
CAAGGAAC	-0.168 E-score
AACGGAAC	-0.124 E-score
CAATCATA	0.255 E-score
ACTCCGAC	-0.178 E-score
AGGAGGTA	-0.0744 E-score
CACCCACG	-0.0445 E-score
ACTTACTC	-0.0421 E-score
ACGAGGAG	-0.157 E-score
ACCACGGG	-0.164 E-score
AAGCATGG	-0.2 E-score
AGCGTACC	-0.176 E-score
ACCTCACG	-0.156 E-score
CACGAACC	-0.0497 E-score
ACTCGGTG	-0.116 E-score
CAGCGTGC	-0.17 E-score
ACTGCGCA	-0.169 E-score
AGAATGGA	-0.044 E-score
ATCAGACC	0.0181 E-score
ATCTTCTG	0.347 E-score
CAACTATG	0.101 E-score

Sequence	binding signal
ACGCCGCT	-0.157 E-score
AATCTAGG	0.433 E-score
ACAGCAAT	0.168 E-score
ATACTCAC	0.143 E-score
AATAACAA	0.108 E-score
ACATGTCA	-0.154 E-score
ACAGGTCG	-0.278 E-score
ACCAAGAC	-0.146 E-score
AATTATAC	0.0776 E-score
ATAGTGTG	-0.0197 E-score
AACCGGCG	-0.207 E-score
ACATGCGG	-0.141 E-score
AGAAGTAA	0.0919 E-score
CACATCCG	0.0717 E-score
ATTCTCTA	0.306 E-score
AAGGAACG	-0.121 E-score
ACGCTACT	-0.0327 E-score
ATAGGCCG	-0.0897 E-score
ACCTTGTG	-0.127 E-score
AGTACGGG	-0.105 E-score
AACATAAG	0.0614 E-score
ACTAAACA	0.0332 E-score
ATTTATGG	0.0213 E-score
ACCCAGCG	-0.203 E-score
ATAGTGGG	-0.121 E-score

Sequence	binding signal
ACGCGCCT	-0.193 E-score
AGCTCGTA	-0.0695 E-score
AAATGGTG	-0.106 E-score
ATAGTTTA	0.0514 E-score
AGTACGAT	0.184 E-score
ATCGATTA	0.207 E-score
AGGCTCGC	-0.34 E-score
ACTCCATC	-0.111 E-score
CACGTTTC	-0.0639 E-score
ATTTATAC	0.229 E-score
CACGGACA	-0.109 E-score
ACAGTTGA	-0.0168 E-score
ATCGGGAC	0.0949 E-score
ACTCAGGC	-0.158 E-score
ATTTTTGG	0.195 E-score
AATGAGCG	-0.193 E-score
CACAGAAA	0.0404 E-score
ATGCTTGG	-0.0554 E-score
AGCGTTCC	-0.21 E-score
AACGCACT	-0.0501 E-score
AAGTTCGG	-0.121 E-score
AGGTGGAA	-0.0781 E-score
AGCCTCCC	-0.373 E-score
ATACCATG	-0.0243 E-score
ACTGAGCA	-0.258 E-score

Sequence	binding signal
AATGGTTC	-0.114 E-score
ACATAAAG	-0.0579 E-score
AAATTTAG	0.156 E-score
ACAGGGCG	-0.109 E-score
AGGCTCCC	-0.377 E-score
AGAGGATA	0.25 E-score
ACGGTCCC	-0.203 E-score
CAACGCAG	-0.114 E-score
ACTGCTAG	-0.144 E-score
AAATGTTG	0.0646 E-score
ACTGCCAA	-0.109 E-score
AGTCATCA	-0.124 E-score
ATCTCCAC	0.333 E-score
AACCGAAT	0.234 E-score
ACGGCTGA	-0.113 E-score
AAACAAAC	-0.0556 E-score
CAGACCAG	-0.215 E-score
ATAGCGAT	0.247 E-score
AACAGAAC	-0.131 E-score
ACTGCAGG	-0.206 E-score
CAACCCCG	-0.133 E-score
ATAAGTGA	-0.00284 E-score
ATAAAAAG	0.0893 E-score
AGACCGCC	-0.335 E-score
AGAAATCC	0.464 E-score

Sequence	binding signal
AATACTCC	0.0475 E-score
ATTAGATC	0.148 E-score
AGCAGCTG	-0.208 E-score
AACAACAA	0.0309 E-score
ATGCTATC	-0.0253 E-score
AGTGAAGG	-0.287 E-score
CAAGCGTA	-0.181 E-score
ATCAACCA	0.0452 E-score
ATCACTGG	0.0924 E-score
CAATAGCA	0.066 E-score
AACCGTCG	-0.0721 E-score
ACCCCTCA	-0.119 E-score
AATTCTCG	0.184 E-score
ATCTGCCG	0.186 E-score
ATCGATCA	0.171 E-score
AGTATAAC	0.146 E-score
AGAACCAT	-0.166 E-score
AGAGTAGA	0.0572 E-score
AAGCCGAG	-0.144 E-score
AAATGTAT	0.00686 E-score
AGCTATCG	-0.0577 E-score
CAAAGGAC	0.0477 E-score
CAAGACGA	0.0676 E-score
AGACAGGC	-0.196 E-score
AAACGTGA	0.0299 E-score

Sequence	binding signal
ATAGAACG	-0.0128 E-score
CAATCCAG	0.291 E-score
CACAGCAC	-0.0956 E-score
ACAGAACC	-0.175 E-score
AAGTGGGC	-0.197 E-score
AGTGGTCA	-0.142 E-score
AATAGTAC	-0.0706 E-score
AAATGGGT	-0.0459 E-score
ATGCGTGC	-0.18 E-score
ACGGGGCC	-0.185 E-score
ACCGTGAA	-0.0604 E-score
ACTGCAAA	0.0844 E-score
ACAGGACT	-0.224 E-score
AACCGCTA	-0.177 E-score
AGGGACGA	-0.105 E-score
AAGAAGAA	-0.13 E-score
ACACTGGT	-0.207 E-score
AGTAATTG	0.116 E-score
ATGCTGGC	-0.117 E-score
AACCCATA	-0.0349 E-score
ACTACCCT	-0.146 E-score
ATTAAACA	0.0281 E-score
ATTGTAAC	0.0822 E-score
ACCGCGAG	-0.21 E-score
AATAAATA	0.209 E-score

Sequence	binding signal
CACGACTA	-0.135 E-score
CACTAGGC	-0.172 E-score
AGTCGCCC	-0.324 E-score
ACTGAAGC	-0.171 E-score
ACGGGTGG	-0.0302 E-score
AGCGGAGG	-0.255 E-score
AACATTGG	-0.00303 E-score
ACCGCCGT	-0.12 E-score
ACTCCCAT	-0.00838 E-score
AACTAGCT	-0.161 E-score
ATGTTCTC	-0.0444 E-score
ATGAATCC	0.152 E-score
ACGCCAGA	-0.0449 E-score
AGGGCACT	-0.226 E-score
AGTCTACA	-0.0279 E-score
ATTAGCAG	0.065 E-score
ATAGGTGA	-0.041 E-score
AGTTCAAG	0.0311 E-score
AGCAGTCG	-0.264 E-score

Reference: PMC5836133
